Test systems include MZ2-MEL; MeWo; RPMI7951; RVH-421; SkMel28; SkMel2; SkMel30; UACC62.
What all share (assay): cell count relative to DMSO control; melanoma cells; higher = more viable cells
Holding throughout (conditions): library dose: low library concentration; 72 h

Consider 13 molecules from the supplement of paper PMC4604168 (melanoma cell lines).

This is one part of the list. Repeats are few or missing, and single values can be far off.
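Note: cell number obtained by counting DAPI-stained nuclei in high-throughput microscope images with image analysis software, screen run in 1,536-well plates.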

Take `Cc1cn(-c2cc(NC(=O)c3ccc(C)c(Nc4nccc(-c5cccnc5)n4)c3)cc(C(F)(F)F)c2)cn1` [nilotinib] + CCN(CC)CCNC(=O)c1c(C)[nH]c(/C=C2\C(=O)Nc3ccc(F)cc32)c1C [sunitinib] (first compound 0.2 µM, partner dose 0.4 µM): the cell count with MZ2-MEL came to 90.4%; in the assay on MeWo it was 97.3%; in the assay on RPMI7951 it was 107%; with RVH-421 it was 109%; in the assay with SkMel28 it was 96.5%; in the assay on SkMel2, 115%. The figures for the cell count with SkMel30 and in the assay with UACC62 were 96.8% and 89.1%, respectively.

Take `Cn1c(=O)n(-c2ccc(C(C)(C)C#N)cc2)c2c3cc(-c4cnc5ccccc5c4)ccc3ncc21` + C=C(c1ccc(C(=O)O)cc1)c1cc2c(cc1C)C(C)(C)CCC2(C)C [Bexarotene] (first compound 0.004 µM, partner dose 2 µM): the cell count worked out at 101% in the assay on MZ2-MEL; 77.1% with MeWo; 79.9% with RPMI7951; 108% in the assay on RVH-421; 77% in the assay on SkMel28; 84.2% with SkMel2. For the same molecule, the cell count was 79.8% in the assay with SkMel30 and 82.1% in the assay on UACC62.

In the case of `COc1ccc(C2=N[C@@H](c3ccc(Cl)cc3)[C@@H](c3ccc(Cl)cc3)N2C(=O)N2CCNC(=O)C2)c(OC(C)C)c1` [Nutlin-3] + OCc1c[nH]c2ccccc12 [Indole-3-carbinol] (first compound 0.1 µM, partner dose 0.8 µM), the cell count in the assay with MZ2-MEL turned out to be 101%; in the assay on MeWo, 88.2%; in the assay on RPMI7951, 82.7%; in the assay with RVH-421 it was 87.9%; with SkMel28 it was 85.3%; in the assay on SkMel2, 101%. Besides, the figures for the cell count in the assay on SkMel30 and with UACC62 were 109% and 80.1%, respectively.

For `Cc1cn(-c2cc(NC(=O)c3ccc(C)c(Nc4nccc(-c5cccnc5)n4)c3)cc(C(F)(F)F)c2)cn1` [nilotinib] + COCC[n+]1c2c(n(Cc3cnccn3)c1C)C(=O)c1ccccc1C2=O [YM155] (first compound 0.2 µM, partner dose 0.0004 µM), the cell count in the assay with MZ2-MEL was found to be 65.9%; in the assay with MeWo, 98.2%; in the assay with RPMI7951, 87.4%; with RVH-421, 110%; with SkMel28, 76.3%; in the assay on SkMel2 it was 86.6%. In addition, the values for the cell count in the assay on SkMel30 and with UACC62 were 109% and 82.5%, respectively.

In the case of `COc1ccc(C2=N[C@@H](c3ccc(Cl)cc3)[C@@H](c3ccc(Cl)cc3)N2C(=O)N2CCNC(=O)C2)c(OC(C)C)c1` [Nutlin-3] + CCN(CC)CCNC(=O)c1c(C)[nH]c(/C=C2\C(=O)Nc3ccc(F)cc32)c1C [sunitinib] (first compound 0.1 µM, partner dose 0.4 µM), the cell count stood at 101% with MZ2-MEL; 88.1% in the assay with MeWo; 95.4% in the assay with RPMI7951; 92.5% in the assay with RVH-421; 85.3% in the assay with SkMel28; 113% in the assay with SkMel2. In addition, the cell count in the assay with SkMel30 was 80.2%; in the assay with UACC62, 105%.

As to `CC(C)C[C@H](NC(=O)[C@H](Cc1ccccc1)NC(=O)c1cnccn1)B(O)O` [Bortezomib] + COc1ccc(Cl)c(Nc2nc3ccccc3nc2NS(=O)(=O)c2cccc(NC(=O)C(C)(C)N)c2)c1 [XL147] (first compound 0.001 µM, partner dose 0.8 µM), the cell count with MZ2-MEL came to 71.7%; in the assay with MeWo, 87.3%; with RPMI7951, 70.7%; in the assay on RVH-421 it was 71.9%; in the assay on SkMel28, 85.5%; in the assay with SkMel2, 104%. Besides, the cell count was 67.5% with SkMel30 and 88.9% with UACC62.

For `Cc1cc(Nc2cc(N3CCN(C)CC3)nc(/C=C/c3ccccc3)n2)n[nH]1` + C[C@@H](Oc1cc(-c2cnn(C3CCNCC3)c2)cnc1N)c1c(Cl)ccc(F)c1Cl [Crizotinib] (first compound 0.04 µM, partner dose 0.2 µM), the cell count with MZ2-MEL was 99.1%; in the assay with MeWo it was 87%; in the assay with RPMI7951, 84.4%; in the assay with RVH-421 it was 90%; with SkMel28 it was 86.1%; in the assay on SkMel2, 94.2%. In addition, the cell count was 108% with SkMel30 and 88.3% with UACC62.

As for `COc1ccc(C2=N[C@@H](c3ccc(Cl)cc3)[C@@H](c3ccc(Cl)cc3)N2C(=O)N2CCNC(=O)C2)c(OC(C)C)c1` [Nutlin-3] + CC(=O)O[C@@]12CO[C@@H]1C[C@H](O)[C@@]1(C)C(=O)[C@H](O)C3=C(C)[C@@H](OC(=O)[C@H](O)[C@@H](NC(=O)OC(C)(C)C)c4ccccc4)C[C@@](O)([C@@H](OC(=O)c4ccccc4)[C@H]21)C3(C)C [Docetaxel] (first compound 0.1 µM, partner dose 0.0001 µM), the cell count with MZ2-MEL stood at 42.8%; in the assay on MeWo it was 56.7%; in the assay with RPMI7951, 43.8%; in the assay on RVH-421 it was 56.8%; with SkMel28 it was 48.2%; in the assay with SkMel2, 38.3%. Moreover, the cell count in the assay with SkMel30 was 47.5%; in the assay with UACC62 it was 52.7%.

Consider `CC(C)C[C@H](NC(=O)[C@H](Cc1ccccc1)NC(=O)c1cnccn1)B(O)O` [Bortezomib] + C[C@@H](Oc1cc(-c2cnn(C3CCNCC3)c2)cnc1N)c1c(Cl)ccc(F)c1Cl [Crizotinib] (first compound 0.001 µM, partner dose 0.2 µM), for which the cell count in the assay with MZ2-MEL was 73.8%; in the assay on MeWo it was 72.3%; with RPMI7951, 69.7%; with RVH-421, 59.5%; in the assay with SkMel28 it was 81%; in the assay with SkMel2, 94.6%. Also, the cell count came to 66.5% in the assay with SkMel30 and 71.4% in the assay with UACC62.

As to `CC(C)C[C@H](NC(=O)[C@H](Cc1ccccc1)NC(=O)c1cnccn1)B(O)O` [Bortezomib] + O=C(O)c1ccc2c(c1)nc(Nc1cccc(Cl)c1)c1ccncc12 [CX4945] (first compound 0.001 µM, partner dose 0.4 µM), the cell count with MZ2-MEL is 62.1%; with MeWo, 79.5%; in the assay with RPMI7951, 59.9%; in the assay with RVH-421, 44.1%; in the assay on SkMel28, 95.5%; in the assay with SkMel2 it was 90.5%. The values for the cell count in the assay on SkMel30 and in the assay with UACC62 were 66.8% and 53.7%, respectively.

In the case of `Cn1c(=O)n(-c2ccc(C(C)(C)C#N)cc2)c2c3cc(-c4cnc5ccccc5c4)ccc3ncc21` + CS(=O)(=O)CCNCc1ccc(-c2ccc3ncnc(Nc4ccc(OCc5cccc(F)c5)c(Cl)c4)c3c2)o1 [lapatinib] (first compound 0.004 µM, partner dose 0.8 µM), the cell count with MZ2-MEL came out at 103%; with MeWo, 85.6%; in the assay on RPMI7951, 92%; in the assay on RVH-421 it was 83%; with SkMel28 it was 104%; with SkMel2, 84.4%. Further, the cell count with SkMel30 turned out to be 76.4%; with UACC62 it was 82.8%.

For the molecule `CC(C)C[C@H](NC(=O)[C@H](Cc1ccccc1)NC(=O)c1cnccn1)B(O)O` [Bortezomib] + CCCS(=O)(=O)Nc1ccc(F)c(C(=O)c2c[nH]c3ncc(Cl)cc23)c1F [PLX4720] (first compound 0.001 µM, partner dose 0.08 µM), the cell count in the assay with MZ2-MEL was 39.9%; in the assay with MeWo, 71.8%; with RPMI7951, 73.8%; in the assay on RVH-421 it was 41.5%; in the assay with SkMel28, 93.5%; with SkMel2, 79.3%. For the same molecule, the cell count in the assay on SkMel30 was found to be 84.2%; in the assay with UACC62 it was 45.9%.

For `Cc1cn(-c2cc(NC(=O)c3ccc(C)c(Nc4nccc(-c5cccnc5)n4)c3)cc(C(F)(F)F)c2)cn1` [nilotinib] + Cn1sc(=O)n(Cc2ccccc2)c1=O [TDZD-8] (first compound 0.2 µM, partner dose 0.4 µM), the cell count in the assay with MZ2-MEL is 112%; in the assay on MeWo it was 105%; in the assay with RPMI7951, 101%; in the assay with RVH-421, 101%; with SkMel28 it was 142%; in the assay with SkMel2 it was 93.5%. The cell count was 90.4% with SkMel30 and 115% in the assay on UACC62.
